Experimental findings from the supplement of paper PMC12217912 are described below.

Sequences and labels used below:
B1: TEV protease; numbered along this chain (parent)
chain: MGESLFKGPRDYNPISSSICHLTNESDGHTTSLYGIGFGPFIITNKHLFRRNNGTLVVQSLHGVFKVKDTTTLQQHLVDGRDMIIIRMPKDFPPFPQKLKFREPQREERICLVTTNFQTKSMSSMVSDTSCTFPSGDGIFWKHWIQTKDGQCGSPLVSTRDGFIVGIHSASNFTNTNNYFTSVPKNFMELLTNQEAQQWVSGWRLNADSVLWGGHKVFMVKPEEPFQPVKEATQL

This is one part of the list. Sequences were assembled here from the parent chain. Values near 0.05 are background.

In the test the parent is B1. The experiment in a line: raw area under fraction-flipped curve 0-4 h after induction (AUC4h, not background-subtracted), DNA-recorder readout of cleavage of the substrate (dimensionless); higher = more cleavage of the substrate by the protease variant. As to conditions: temperature: 34 °C; time window: 0-4 h after rhamnose induction. On the procedure: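 In vivo DNA recorder in E. coli TOP10(DE3) ΔrhaA at 34 °C. Each TEVp single-site mutant (parent TEVp 0) is paired with a single-site variant of the 7-mer TEVs (canonical ENLYFQ|S). The substrate sits between flexible linkers in a Bxb1-sfGFP-TEVs-SsrA fusion, so cleavage stabilises Bxb1 and speeds flipping of a recombination array, read by NGS. The value is the raw area under the fraction-flipped curve over 0-4 h after rhamnose induction (AUC4h), with ≥20 reads per time point. It is not background-subtracted; inactive controls average about 0.047.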
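Also: Bxb1 expression induced with 0.2% (w/v) L-rhamnose at OD600 near 0.5, cultures sampled hourly, flipped fraction per protease–substrate barcode pair counted by paired-end Illumina sequencing.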

For the variant MGESLFKGPRFYNPISSSICHLTNESDGHTTSLYGIGFGPFIITNKHLFRRNNGTLVVQSLHGVFKVKDTTTLQQHLVDGRDMIIIRMPKDFPPFPQKLKFREPQREERICLVTTNFQTKSMSSMVSDTSCTFPSGDGIFWKHWIQTKDGQCGSPLVSTRDGFIVGIHSASNFTNTNNYFTSVPKNFMELLTNQEAQQWVSGWRLNADSVLWGGHKVFMVKPEEPFQPVKEATQL [D11F], the “area with substrate ENLAFQS” value was determined as 0.0456, the “area with substrate ENLCFQS” value is 0.0725, the “area with substrate ENLDFQS” value amounted to 0.0661 and the “area with substrate ENLEFQS” value worked out at 0.0778. For the same variant, the “area with substrate ENLFFQS” value came to 0.079, the “area with substrate ENLGFQS” value worked out at 0.0778, the “area with substrate ENLHFQS” value worked out at 0.071 and the “area with substrate ENLIFQS” value was 0.087. Moreover, the “area with substrate ENLKFQS” value worked out at 0.0662, the “area with substrate ENLLFQS” value was determined as 0.0731, the “area with substrate ENLNFQS” value stood at 0.0677 and the “area with substrate ENLQFQS” value was 0.11. The “area with substrate ENLRFQS” value came to 0.0709, the “area with substrate ENLSFQS” value was 0.0418, the “area with substrate ENLVFQS” value is 0.129 and the “area with substrate ENLWFQS” value was found to be 0.0616.
With MGESLFKGPRDYNPISSSWCHLTNESDGHTTSLYGIGFGPFIITNKHLFRRNNGTLVVQSLHGVFKVKDTTTLQQHLVDGRDMIIIRMPKDFPPFPQKLKFREPQREERICLVTTNFQTKSMSSMVSDTSCTFPSGDGIFWKHWIQTKDGQCGSPLVSTRDGFIVGIHSASNFTNTNNYFTSVPKNFMELLTNQEAQQWVSGWRLNADSVLWGGHKVFMVKPEEPFQPVKEATQL [I19W], the “area with substrate ENLAFQS” value came out at 0.0576, the “area with substrate ENLDFQS” value came to 0.0412, the “area with substrate ENLEFQS” value stood at 0.056 and the “area with substrate ENLFFQS” value came out at 0.051. Also, the “area with substrate ENLHFQS” value turned out to be 0.0527, the “area with substrate ENLIFQS” value was 0.0516, the “area with substrate ENLKFQS” value turned out to be 0.0488 and the “area with substrate ENLNFQS” value is 0.0625. Besides, the “area with substrate ENLQFQS” value came out at 0.0574, the “area with substrate ENLRFQS” value came out at 0.0525, the “area with substrate ENLSFQS” value turned out to be 0.0484 and the “area with substrate ENLVFQS” value stood at 0.0479. The “area with substrate ENLWFQS” value is 0.0475.
As to MGESLFKGRRDYNPISSSICHLTNESDGHTTSLYGIGFGPFIITNKHLFRRNNGTLVVQSLHGVFKVKDTTTLQQHLVDGRDMIIIRMPKDFPPFPQKLKFREPQREERICLVTTNFQTKSMSSMVSDTSCTFPSGDGIFWKHWIQTKDGQCGSPLVSTRDGFIVGIHSASNFTNTNNYFTSVPKNFMELLTNQEAQQWVSGWRLNADSVLWGGHKVFMVKPEEPFQPVKEATQL [P9R], the “area with substrate ENLAFQS” value is 0.0678, the “area with substrate ENLCFQS” value came to 0.0716, the “area with substrate ENLDFQS” value was found to be 0.0516 and the “area with substrate ENLFFQS” value is 0.0967. Also, the “area with substrate ENLHFQS” value came to 0.0788, the “area with substrate ENLKFQS” value was 0.0794, the “area with substrate ENLLFQS” value amounted to 0.0903 and the “area with substrate ENLNFQS” value turned out to be 0.0532. Moreover, the “area with substrate ENLPFQS” value stood at 0.0625, the “area with substrate ENLQFQS” value is 0.0686, the “area with substrate ENLRFQS” value was 0.0598 and the “area with substrate ENLSFQS” value came out at 0.0647. The “area with substrate ENLWFQS” value was 0.0762.
Regarding MGESLFKGPRDYNHISSSICHLTNESDGHTTSLYGIGFGPFIITNKHLFRRNNGTLVVQSLHGVFKVKDTTTLQQHLVDGRDMIIIRMPKDFPPFPQKLKFREPQREERICLVTTNFQTKSMSSMVSDTSCTFPSGDGIFWKHWIQTKDGQCGSPLVSTRDGFIVGIHSASNFTNTNNYFTSVPKNFMELLTNQEAQQWVSGWRLNADSVLWGGHKVFMVKPEEPFQPVKEATQL [P14H], the “area with substrate ENLAFQS” value worked out at 0.0948, the “area with substrate ENLCFQS” value came to 0.0784, the “area with substrate ENLDFQS” value stood at 0.0654 and the “area with substrate ENLEFQS” value was determined as 0.0632. Further, the “area with substrate ENLFFQS” value came to 0.0832, the “area with substrate ENLGFQS” value worked out at 0.0602, the “area with substrate ENLHFQS” value came out at 0.0624 and the “area with substrate ENLIFQS” value stood at 0.0883. For the same variant, the “area with substrate ENLNFQS” value was determined as 0.055, the “area with substrate ENLPFQS” value came out at 0.0525, the “area with substrate ENLQFQS” value is 0.0421 and the “area with substrate ENLVFQS” value turned out to be 0.0624.
For the variant MGESLFKGPRDYNEISSSICHLTNESDGHTTSLYGIGFGPFIITNKHLFRRNNGTLVVQSLHGVFKVKDTTTLQQHLVDGRDMIIIRMPKDFPPFPQKLKFREPQREERICLVTTNFQTKSMSSMVSDTSCTFPSGDGIFWKHWIQTKDGQCGSPLVSTRDGFIVGIHSASNFTNTNNYFTSVPKNFMELLTNQEAQQWVSGWRLNADSVLWGGHKVFMVKPEEPFQPVKEATQL [P14E], the “area with substrate ENLAFQS” value amounted to 0.0692, the “area with substrate ENLDFQS” value was determined as 0.062, the “area with substrate ENLEFQS” value came out at 0.0667 and the “area with substrate ENLFFQS” value stood at 0.0943. The “area with substrate ENLHFQS” value stood at 0.0763, the “area with substrate ENLIFQS” value was determined as 0.0687, the “area with substrate ENLKFQS” value came out at 0.0764 and the “area with substrate ENLNFQS” value is 0.0674. Besides, the “area with substrate ENLPFQS” value amounted to 0.05, the “area with substrate ENLQFQS” value came to 0.0589, the “area with substrate ENLRFQS” value came to 0.0684 and the “area with substrate ENLSFQS” value worked out at 0.0538. For the same variant, the “area with substrate ENLVFQS” value was determined as 0.12.
On to MGESLFKGPRDYNPISPSICHLTNESDGHTTSLYGIGFGPFIITNKHLFRRNNGTLVVQSLHGVFKVKDTTTLQQHLVDGRDMIIIRMPKDFPPFPQKLKFREPQREERICLVTTNFQTKSMSSMVSDTSCTFPSGDGIFWKHWIQTKDGQCGSPLVSTRDGFIVGIHSASNFTNTNNYFTSVPKNFMELLTNQEAQQWVSGWRLNADSVLWGGHKVFMVKPEEPFQPVKEATQL [S17P], for which the “area with substrate ENLAFQS” value is 0.0567, the “area with substrate ENLDFQS” value worked out at 0.0622, the “area with substrate ENLEFQS” value was 0.0583 and the “area with substrate ENLFFQS” value stood at 0.0724. For the same variant, the “area with substrate ENLGFQS” value was found to be 0.0766, the “area with substrate ENLHFQS” value worked out at 0.0658, the “area with substrate ENLKFQS” value stood at 0.0609 and the “area with substrate ENLLFQS” value was 0.0679. In addition, the “area with substrate ENLMFQS” value was found to be 0.0637, the “area with substrate ENLNFQS” value was 0.0608, the “area with substrate ENLPFQS” value came out at 0.0682 and the “area with substrate ENLQFQS” value came out at 0.0639. Also, the “area with substrate ENLRFQS” value is 0.0738, the “area with substrate ENLSFQS” value stood at 0.0708 and the “area with substrate ENLWFQS” value was determined as 0.0725.
Consider MGEILFKGPRDYNPISSSICHLTNESDGHTTSLYGIGFGPFIITNKHLFRRNNGTLVVQSLHGVFKVKDTTTLQQHLVDGRDMIIIRMPKDFPPFPQKLKFREPQREERICLVTTNFQTKSMSSMVSDTSCTFPSGDGIFWKHWIQTKDGQCGSPLVSTRDGFIVGIHSASNFTNTNNYFTSVPKNFMELLTNQEAQQWVSGWRLNADSVLWGGHKVFMVKPEEPFQPVKEATQL [S4I], for which the “area with substrate ENLAFQS” value is 0.0816, the “area with substrate ENLCFQS” value stood at 0.0876, the “area with substrate ENLDFQS” value came out at 0.0479 and the “area with substrate ENLEFQS” value was 0.0569. Besides, the “area with substrate ENLGFQS” value turned out to be 0.0564, the “area with substrate ENLHFQS” value amounted to 0.0662, the “area with substrate ENLKFQS” value was determined as 0.0941 and the “area with substrate ENLLFQS” value was determined as 0.0893. Moreover, the “area with substrate ENLMFQS” value is 0.0887, the “area with substrate ENLNFQS” value was 0.0439, the “area with substrate ENLPFQS” value was found to be 0.0524 and the “area with substrate ENLQFQS” value amounted to 0.0817. Besides, the “area with substrate ENLSFQS” value amounted to 0.0639 and the “area with substrate ENLWFQS” value came to 0.0453.
Take MGESLFKGPRDYMPISSSICHLTNESDGHTTSLYGIGFGPFIITNKHLFRRNNGTLVVQSLHGVFKVKDTTTLQQHLVDGRDMIIIRMPKDFPPFPQKLKFREPQREERICLVTTNFQTKSMSSMVSDTSCTFPSGDGIFWKHWIQTKDGQCGSPLVSTRDGFIVGIHSASNFTNTNNYFTSVPKNFMELLTNQEAQQWVSGWRLNADSVLWGGHKVFMVKPEEPFQPVKEATQL [N13M]: the “area with substrate ENLAFQS” value came to 0.0697, the “area with substrate ENLCFQS” value turned out to be 0.0679, the “area with substrate ENLDFQS” value was 0.0581 and the “area with substrate ENLFFQS” value came to 0.0817. For the same variant, the “area with substrate ENLKFQS” value stood at 0.0713, the “area with substrate ENLLFQS” value is 0.064, the “area with substrate ENLMFQS” value was 0.0644 and the “area with substrate ENLNFQS” value came out at 0.0581. For the same variant, the “area with substrate ENLWFQS” value turned out to be 0.0554.
Regarding MGESLFKGPRDYFPISSSICHLTNESDGHTTSLYGIGFGPFIITNKHLFRRNNGTLVVQSLHGVFKVKDTTTLQQHLVDGRDMIIIRMPKDFPPFPQKLKFREPQREERICLVTTNFQTKSMSSMVSDTSCTFPSGDGIFWKHWIQTKDGQCGSPLVSTRDGFIVGIHSASNFTNTNNYFTSVPKNFMELLTNQEAQQWVSGWRLNADSVLWGGHKVFMVKPEEPFQPVKEATQL [N13F], the “area with substrate ENLAFQS” value was 0.0615, the “area with substrate ENLCFQS” value stood at 0.0724, the “area with substrate ENLDFQS” value stood at 0.0653 and the “area with substrate ENLEFQS” value was found to be 0.0661. For the same variant, the “area with substrate ENLFFQS” value came out at 0.0913, the “area with substrate ENLHFQS” value worked out at 0.0644, the “area with substrate ENLIFQS” value came out at 0.0898 and the “area with substrate ENLKFQS” value was 0.0707. Besides, the “area with substrate ENLLFQS” value worked out at 0.0565, the “area with substrate ENLMFQS” value amounted to 0.0941, the “area with substrate ENLNFQS” value amounted to 0.0708 and the “area with substrate ENLPFQS” value stood at 0.0603. For the same variant, the “area with substrate ENLQFQS” value came out at 0.0699, the “area with substrate ENLSFQS” value stood at 0.0531, the “area with substrate ENLVFQS” value is 0.0554 and the “area with substrate ENLWFQS” value is 0.0523.
